Source: PubChem BioAssay (NCATS)
This list was built around the results that the source calls inconclusive (neither active nor inactive); the mix of calls is not that of the screen. The source made the active and inactive calls. The call rests on the fitted dose curve; in most records, active means well fitted curve in either direction with a large enough effect (not every such curve was filed as active); inconclusive means small, poorly fitted or top-dose-only effect, or another doubt; inactive means flat fitted curve, though single readings scatter.

assay: NFAT Signaling Pathway (AID 444); settings: Jurkat NFAT-bla M1, carbachol, beta-lactamase ratio, 5 h; at 17.2 µM (top of the series) unless noted;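 further: carbachol stimulus at about its EC50 of 1 µM final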
Summary of the method: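 Jurkat cells carrying an NFAT-driven β-lactamase reporter and co-transfected muscarinic M1 receptor were treated with compound plus carbachol (1 uM final, an EC50 level) for 5 h at 37 °C. CCF4 loading followed for 1 h at RT; 460/530 nm ratio gave %activity.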
On the % scale 0 is the no-effect control and ±100 the full control effect.

SMILES | activity change, negative = inhibition
Cc1ccc(-c2nc(-c3nccc4ccccc34)oc2-c2ccccc2)cc1 | inconclusive: 55.2% [activator] [at 7.69 µM]
COc1ccc(-c2csc3c2[N+]2=CCC=C2C3=O)cc1 | inconclusive: -70% [inhibitor] [at 7.69 µM]
N#CCSc1nc2c(c(=O)n1Cc1ccco1)C1(CCCC1)Cc1ccccc1-2 | inconclusive: -61.9% [inhibitor]
CCCCCCC(=O)N1CCN(c2cc3c(cc2F)c(=O)c(C(=O)O)cn3CC)CC1 | inactive: 7.84%
CNCC[C@H](Oc1ccccc1C)c1ccccc1 | inconclusive: -50.8% [inhibitor] [at 38 µM]
O=C1C(Cl)=C(Sc2nnc3c4ccccc4c4ccccc4c3n2)C(=O)c2ccccc21 | inconclusive: -44.9% [inhibitor] [at 7.69 µM]
COCCNc1ncnc2ccc(-c3cccc(OC)c3)cc12 | inconclusive: 36.6% [activator] [at 7.69 µM]
O[Si@](CCCN1CCCCC1)(c1ccc(F)cc1)C1CCCCC1 | inconclusive: -65.1% [inhibitor] [at 38 µM]
O=C(c1csnn1)N1CCC2(CCCN(c3ccc(-c4ccccc4)cc3)C2)CC1 | inactive: -15.8% [at 7.69 µM]
C[C@@H](COc1ccc(/C=C\c2ccccc2)cc1)[N+](C)(C)C | inconclusive: -59.7% [inhibitor] [at 38 µM]
CCCCCCCCCCCCCCCCCC(=O)O[C@H](CC(=O)O)C[N+](C)(C)C | inconclusive: -57.9% [inhibitor] [at 38 µM]
CCN(CC)CCN1c2ccccc2Sc2ccc3ccccc3c21 | inconclusive: -78.7% [inhibitor] [at 7.69 µM]
CC1(C)CC(=O)C(C=NCCN2CCN(CCc3ccccc3)CC2)=C(O)C1 | inconclusive: -41% [inhibitor]
COc1cccc(Nc2ncc3nc(-c4ccc(Cl)cc4)c(=O)n(CCC#N)c3n2)c1 | inconclusive: -47.2% [inhibitor] [at 7.69 µM]
CN(C)CC(O)COc1ccc(C(C)(C)c2ccc(OCC(O)CN(C)C)cc2)cc1 (configuration not stated) | inactive: 1.57%
CCN(CC)CCOC(=O)c1c(C)n(C)c2ccc(OC)cc12 | inconclusive: -72.1% [inhibitor]

SMILES | activity change, negative = inhibition
O=C(Oc1ccccc1)N1CCC[C@@]2(CCN(c3ccncc3)C2)C1 | inconclusive: -34.3% [inhibitor] [at 7.69 µM]
CCOC(=O)c1c(CN2CCN(C)CC2)n(C)c2cc(Br)c(OC)cc12 | inactive: 20.5%
CCNc1ncc2nc(CCc3ccccc3)c(=O)n(Cc3ccc(F)cc3)c2n1 | inactive: 20.5% [at 7.69 µM]
Cc1cc(Nc2ccc3ccccc3c2)n2ncnc2n1 | inconclusive: -32.2% [inhibitor]
CS(=O)(=O)Nc1cccc(-c2ccc3ncnc(NCc4cccnc4)c3c2)c1 | inconclusive: 39.1% [activator] [at 7.69 µM]
C=C(C)COc1ccc2c(c1)CCC1C2CC[C@]2(C)C(=O)/C(=N/O)CC12 (some centres not stated) | inconclusive: -44.1% [inhibitor] [at 7.69 µM]
Cc1cc(C)nc(NC2=NCC(=O)N2c2ccc(Cl)cc2)n1 | inactive: -13.8%
CCc1[nH]nc2c1C(c1ccc(Br)s1)C(C#N)=C(N)O2 (configuration not stated) | inconclusive: -102% [inhibitor]
COC(=O)c1cccc(Nc2cc(C)nc(-c3ccccc3O)n2)c1 | inconclusive: -85.8% [inhibitor]
O=[N+]([O-])c1ccc(S(=O)(=O)Cc2ccccc2)c2nonc12 | inconclusive: -95.4% [inhibitor] [at 7.69 µM]
COc1cccc(Nc2ncc3nc(CCc4ccccc4)c(=O)n(C)c3n2)c1 | inactive: 21.6% [at 7.69 µM]
C[N+](C)([O-])CCC=C1c2ccccc2CCc2ccccc21 | inconclusive: -78.1% [inhibitor] [at 7.69 µM]
COc1cccc(Nc2ncc3nc(CCc4ccccc4)c(=O)n(C4CC4)c3n2)c1 | inconclusive: -43.6% [inhibitor] [at 7.69 µM]
COc1ccc2[nH]cc(C(=O)CN(C)CCc3ccc(OC)c(OC)c3)c2c1 | inactive: 11.6%
COCCNc1cc(C)c(C#N)c2nc3ccccc3n12 | inactive: 12.9%
CC(=O)O[C@H]1CC[C@@]2(C)C(=CC[C@@H]3[C@H]4CC[C@@H]([C@H](C)C(=O)O)[C@]4(C)CC[C@H]32)C1 | inconclusive: -35.1% [inhibitor] [at 7.69 µM]
